The campaign covered roughly 45,000 compounds. About 65 (0.1%) were called active. The call rests on the fitted dose curve; in most records, active means well fitted activation curve with a large enough effect; inconclusive means small, poorly fitted or top-dose-only effect; inactive means no such curve, though single readings can be large or run the other way. Some of the results follow.
Molecular target: Galactocerebrosidase (Homo sapiens) (UniProt P54803)
Assay: A Novel Cell-Based Assay to Identify Small Molecules for B -Galactocerebrosidase; further: 0% is about no effect; nearly all actives have a fitted effect of over 65% in size
Conditions: 145M-Twi-hGALC-G270D cells (Twitcher mouse brain line with human GALC G270D), HMU-beta-Gal fluorescence, 48 h; series mostly up to 57.5 µM; activation: at the top concentration
Summary of the method: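 Fluorogenic HMU-b-Gal hydrolysis (0.1 mM final, pH 5.2 citrate-phosphate with 1 mg/mL sodium taurocholate; carbonate stop buffer) measures mutant GALC activity after compound treatment of live 145M-Twi Twitcher brain cells stably carrying human GALC-G270D, with wild-type GALC line alongside; activation sought.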

Chain of UniProt P54803 (P54803 whole entry, looked up): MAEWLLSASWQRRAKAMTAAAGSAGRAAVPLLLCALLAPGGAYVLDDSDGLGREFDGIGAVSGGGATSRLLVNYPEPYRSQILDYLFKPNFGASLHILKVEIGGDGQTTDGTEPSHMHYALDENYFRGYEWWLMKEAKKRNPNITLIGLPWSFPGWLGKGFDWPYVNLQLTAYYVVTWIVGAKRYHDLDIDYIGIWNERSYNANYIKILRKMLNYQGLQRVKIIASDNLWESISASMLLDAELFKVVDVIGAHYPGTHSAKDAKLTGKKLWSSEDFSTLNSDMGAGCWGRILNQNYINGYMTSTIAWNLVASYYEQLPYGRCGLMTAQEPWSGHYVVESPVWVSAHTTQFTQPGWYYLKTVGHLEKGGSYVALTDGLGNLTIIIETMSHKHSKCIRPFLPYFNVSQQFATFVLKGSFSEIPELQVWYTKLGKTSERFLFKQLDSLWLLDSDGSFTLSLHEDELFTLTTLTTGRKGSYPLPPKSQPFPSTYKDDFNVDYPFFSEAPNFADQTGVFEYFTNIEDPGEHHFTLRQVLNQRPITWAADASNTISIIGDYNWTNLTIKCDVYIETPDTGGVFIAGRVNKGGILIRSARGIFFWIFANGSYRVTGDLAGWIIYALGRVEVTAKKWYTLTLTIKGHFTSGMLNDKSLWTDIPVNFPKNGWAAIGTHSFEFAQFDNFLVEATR

activation, inactive:
CC1CCCN(CCCNC(=O)c2ccc3c(c2)N(Cc2ccccc2F)C(=O)c2ccccc2S3(=O)=O)C1 (stereo not given) 0.757%
COc1cc(C(=O)Oc2c(Sc3ccccc3)c(C)nn2-c2ccccc2)cc(OC)c1OC -17.7%
CCc1ccccc1NC(=O)Nc1c[nH]c(=O)[nH]c1=O -7.72%
Cc1ccc(C)c(N2CCN(C(=O)c3ccc(NC(=O)c4nsc5ccccc45)cc3)CC2)c1 -3.32%
Cc1ccc(CNC(=O)CCCCCn2c(=O)[nH]c3ccccc3c2=O)cc1 -16.3%
Cc1nn(-c2ccccc2)c(OC(=O)C(C)C)c1Sc1ccc(Cl)cc1 -14%
Cc1ccc(/C=C/c2onc(C)c2S(=O)(=O)N2CCC(C(=O)Nc3ccc(C)c(N(C)C)c3)CC2)cc1 -11.3%
CCOc1ccc(N2CC(NC(=O)CCc3ccccc3)CC2=O)cc1 (stereo not given) -3.8%
CC(C)(C)c1ccc(NC(=O)C2CCCN(c3cnccn3)C2)cc1 (stereo not given) -8.94%
Cc1ccccc1-c1nc(CN2CCC(C(=O)NCc3ccccc3Cl)CC2)c(C)o1 -7.9%
Cc1ccccc1OCCSc1nnc(-c2ccc([N+](=O)[O-])cc2)o1 -6.81%
O=C(NCC(c1ccc2c(c1)OCO2)N1CCOCC1)C(=O)Nc1ccc(Cl)cc1 (stereo not given) -9.4%
Oc1cccc(-c2nc(-c3cccs3)c(-c3cccs3)[nH]2)c1 -9.65%
CC(=O)CC(c1ccccc1)c1c(O)c2ccccc2oc1=O (stereo not given) -14.2%
CCCN(CCC)CCCNC(=O)c1sc2nc3n(c(=O)c2c1C)CCC3 -13.1%
CCCCC(CC)CNC(=O)CC(C)OC(=O)CCC(=O)O (stereo not given) -13.5%
CCC1CCCCN1CCCNC(=O)c1sc2nc(C)cc(C)c2c1-n1cccc1 (stereo not given) 19.7%
COc1ccccc1NC(=O)c1cc2c(n(-c3ccc(C)cc3)c1=O)CC(C)(C)CC2=O -9.78%
COc1ccc(CNC(=O)CSCc2ccc(C)cc2)c(OC)c1 -13.1%
CCc1cc2c(cc3c(=O)n(CC(=O)NC(C)C)nc(CC)n32)s1 -7.4%
O=C(c1ccc2c(c1)N(Cc1cccc(Cl)c1)C(=O)c1ccccc1S2(=O)=O)N1CCN(Cc2ccccc2)CC1 -21.5%
COc1ccc(CNC(=O)C2=Cc3cccc(OC)c3OC2)cc1OC -3.1%
O=C(Nc1ccc(F)cc1F)c1cc(CN2CCOCC2)on1 -9.74%
COc1ccc(OC)c(NS(=O)(=O)c2ccc3c(c2)CCCN3C(=O)C2CCC2)c1 3.69%
NS(=O)(=O)c1cc2c(cc1Cl)NC(C1CC3C=CC1C3)NS2(=O)=O (stereo not given) -16.2%
COc1ccc(CNC(=O)Cn2c(=O)n3nc(-c4cccc(F)c4)nc3c3ccccc32)cc1OC -17.1%
O=C1NS(=O)(=O)c2ccccc21 -8.37%
CCc1ccc(NC(=O)c2ccc(F)c(S(=O)(=O)N3CCc4ccccc4C3)c2)cc1 -13.3%
Cc1cccc(NC(=O)C(Cc2ccccc2)N2Cc3ccccc3C2=O)c1C (stereo not given) -8.68%
CCc1nn(CC(=O)NCCN(CC(C)C)CC(C)C)c(=O)c2cc3sc(C)cc3n12 -9.29%
COc1cccc(C(c2sc3nc(-c4ccco4)nn3c2O)N2CCC3(CC2)OCCO3)c1 (stereo not given) 2.05%
CCc1ccc(CNC(=O)c2ccc(-n3c(C)cc4c3CCC(C)C4)cc2)cc1 (stereo not given) -23.2%
COc1cc(Br)c(C2CC(=O)Nc3cc4c(cc32)OCCO4)cc1OC (stereo not given) 17.5%
Cc1ccc(S(=O)(=O)Nc2ccc3c(c2)CCCN3C(=O)c2cccs2)cc1C -22.9%
Oc1ccccc1-c1nc2ccc(Cl)cn2c1Nc1ccc2c(c1)OCCO2 -29.5%
O=C(Nc1c(C(=O)N2CCN(c3ccccc3F)CC2)oc2ccccc12)c1ccc(Br)o1 -20.3%
COc1ccc(-c2ccc(=O)n(CC(=O)Nc3ccccc3C(F)(F)F)n2)cc1 -9.86%
CCS(=O)(=O)N1CCc2cc(C(=O)Nc3cccc(NC(C)=O)c3)ccc21 -2.51%
COc1ccc(-c2nc(CSc3nnc(C)n4c3cc3sccc34)c(C)o2)cc1 -0.976%
Cc1ccc(C2c3[nH]c4ccccc4c3CCN2C(=O)CSc2ccccc2)cc1 (stereo not given) -41.5%
CSc1cccc(NC(=O)C2CCCN(S(=O)(=O)c3ccc4c(c3)CCCN4C(C)=O)C2)c1 (stereo not given) -14%
Cn1c(=O)oc2cc(S(=O)(=O)N3CCCC(C(=O)N4CCN(c5ccc(F)cc5)CC4)C3)ccc21 (stereo not given) -5.66%
CCc1nn2c(=O)cc(COC(=O)c3ccccc3NC(=O)c3ccc(C(C)(C)C)cc3)nc2s1 -17.9%
Cc1ccccc1OCC(=O)Nc1nnc(S(=O)(=O)N2CCCCCC2)s1 -22.2%
CC(Oc1ccc(Br)cc1)C(=O)N(Cc1nc(-c2ccccc2)no1)C(C)C (stereo not given) 6.07%
O=C(NCCCN1CCN(c2ccccc2)CC1)c1ccc2nc(CCc3ccccc3)oc2c1 -10.6%
CN(C)CCCOC1(Cc2ccccc2)CCCCCC1 -10.3%
Cc1ccc(-n2c(-c3cccc(C)c3)nc3c(cnn3-c3ccccc3)c2=O)cc1 -15.1%
COc1ccc(Cl)cc1NC(=O)NCc1noc2ccccc12 -13.8%
COc1ccc(CCNC(=O)CCCn2c(=O)c3ccccc3n(CC(=O)Nc3ccc(C)cc3Cl)c2=O)cc1OC 0.702%
Cc1nn2c(=O)cc(COC(=O)C(c3ccccc3)c3ccccc3)nc2s1 -7.88%
COc1ccc(CNC(=O)c2cc3c(=O)[nH]c4ccccc4c3n2C)c(OC)c1 -17%
Cc1ccc2c(c1)N(C(=O)N1CCC(C(=O)NCc3cccs3)CC1)CC(C)O2 (stereo not given) -12.6%
Cc1ccc(-c2c(C(=O)N(C)Cc3ccccc3)oc(=O)c3ccccc23)cc1 0.914%
Cc1cccc(N(CC(=O)NCCSc2ccc(Cl)cc2)S(C)(=O)=O)c1C -7.9%
Cc1cccc(-c2nc(C)c(CCNC(=O)c3cccs3)s2)c1 3.56%
O=C(NCC(c1cccnc1)N1CCc2ccccc2C1)C(=O)Nc1ccc(F)cc1F (stereo not given) -20.2%
O=C(CN1CCCN(Cc2cccc(F)c2)S1(=O)=O)Nc1ccc2c(c1)OCCO2 -6.09%
COC(=O)c1nnn(-c2ccc(Cl)cc2)c1C(=O)OC -14.8%
O=C(CCS(=O)(=O)c1nc(-c2ccc3c(c2)OCO3)cc(C(F)(F)F)n1)Nc1ccc(F)cc1F -24%
CCS(=O)(=O)c1ncc(Cl)c(C(=O)Nc2c(C(=O)c3ccc(C)cc3)oc3ccccc23)n1 -8.68%
Cc1ccc(-n2ncc(C(=O)N3CCN(C(=O)c4ccco4)CC3)c2C2CCN(C(=O)OC(C)(C)C)CC2)cc1 -16.6%
CC(C)c1ccc(NC(=O)CCNS(=O)(=O)c2ccc3c(c2)oc(=O)n3C)cc1 -13.8%
Cc1ccc(NC(=O)C2CCN(C(=O)c3cnn(-c4ccccc4)c3-n3cccc3)CC2)cc1C -12.2%
Cc1cccc(CCNC(=O)c2nn(C)c3c2CSc2ccccc2-3)c1 1.15%
O=C(c1ccc2c(c1)N(Cc1cccc(Cl)c1)C(=O)c1ccccc1S2(=O)=O)N1CCCCCC1 -16.4%
COc1cccc(-c2cn3c(n2)sc2cc(C(=O)NCCC4=CCCCC4)ccc23)c1 -17%
O=C(CSc1oc(-c2ccc(F)cc2)nc1S(=O)(=O)c1ccc(Cl)cc1)c1ccccc1 -29%
COc1ccc(-c2cc(C(F)(F)F)n3nc(C(=O)Nc4sc5c(c4C(=O)OC(C)C)CCCC5)cc3n2)cc1OC -20.6%
COc1ccc(N2CCN(C(CNC(=O)c3cccc(OC)c3)c3cccnc3)CC2)cc1 (stereo not given) -14.4%
NC(N)=NC(=O)c1nc(Cl)c(N)nc1N -13.8%
CCc1ccc(CNc2ncnc3onc(-c4ccc(Cl)cc4)c23)cc1 0.958%
CCOc1ccc(CN(C(=O)c2cc(=O)c3cc(Cl)ccc3o2)C2CCS(=O)(=O)C2)cc1 (stereo not given) -16.5%
CCCCOC(=O)c1c(C)oc2ccc(NS(=O)(=O)c3ccc(F)cc3C)cc12 -25.9%
Cn1c(C(=O)N2CCCC(C(=O)N3CCN(c4ccccc4)CC3)C2)cc2sccc21 (stereo not given) -10.3%
COc1ccc(NC(=O)Cn2c(=O)n(-c3ccc(C)c(C)c3)c(=O)c3c4c(sc32)CCCCC4)cc1Cl -33.2%
CCc1ccc(NC(=O)CSc2cn(CC(=O)N3CCOCC3)c3ccccc23)cc1 -4.1%
CCN(CC)C(=O)C1CCN(c2cc(C)nc3c(-c4ccc(OC)c(OC)c4)c(C)nn23)CC1 -6.47%
COc1ccccc1NC(=O)C1=C(C)Nc2c(C(=O)Nc3cccc(C)c3)cnn2C1c1ccccc1C (stereo not given) -8.87%
O=C(CCn1c(=O)c2cccn2c2cccnc21)NCc1ccc(Cl)cc1 6.4%
COC(=O)c1ccc(NC(=O)C(=O)NCCc2sc3nc(-c4ccc(OC)cc4)nn3c2C)cc1 -6.02%
COc1cc2c(cc1OC)n(CC(=O)Nc1ccccc1)c(=O)n1nc(-c3ccccc3)nc21 -4.64%
Cc1ccc(/C=C/c2nc3ccccc3n2S(=O)(=O)c2cccc(Cl)c2)cc1 -5.72%
CC(CC(=O)NCc1ccc(Cl)cc1Cl)CC1=NS(=O)(=O)c2ccccc2N1 (stereo not given) -4.32%
O=c1oc2c(O)c(O)cc3c(=O)oc4c(O)c(O)cc1c4c23 -15.7% [at 23.8 µM]
COc1ccc(CCNC(=O)c2cc(=O)c3c(C)cc(C)cc3o2)cc1OC -11.6%
Cc1ccc(Nc2nc3c(S(=O)(=O)c4ccccc4)nnn3c3ccc(Cl)cc23)c(C)c1 -15.4%
COc1cc2nc(Nc3ccc(C)c(C)c3)nc(N)c2cc1OC -16.5%
Cc1cccc(OC(=O)c2nc(SCc3ccccc3F)ncc2Cl)c1 20.4%
CCOC(=O)c1ccc(NC(=O)Cn2cc(C(=O)c3cccs3)c3ccccc32)cc1 -15.7%
O=S(=O)(c1ccccc1)N1CCC(c2ccncc2)CC1 2.45%
Cc1nn(CC(=O)NCCc2ccccc2Cl)c(=O)c2nn(-c3ccccc3)c(C)c12 -13.2%
COc1ccc(CNCc2c(C(=O)O)c(C)n(Cc3ccc(Cl)cc3)c2C)c(OC)c1 -12.5%
CC(=O)c1cc(-c2ccc(F)cc2)n(CCC(=O)Nc2nc3c(C)cccc3s2)c1C -11.2%
Cc1ccc2c(c1)c1c(c(=O)n(-c3ccccc3C)c(=O)n1CC(=O)NCCC1=CCCCC1)n2C -4.73%

From PubChem BioAssay AID1159614 (National Center for Advancing Translational Sciences (NCATS), 2016)
